Measurements: PubChem BioAssay AID651820 (National Center for Advancing Translational Sciences (NCATS), 2012)
“And” between values parts separate entries of the source, which are not always exact repeats. Equal values may be shown once. In all, about 340,000 compounds went through this assay and about 12,000 (3.5%) were called active. Inconclusive results, whose numbers are uncertain, are shown with a selection of clear calls. Calls follow the shape of the dose curve; as a rule, active = well fitted inhibition curve with a large enough effect; inconclusive = small, poorly fitted or top-dose-only effect, or another doubt; inactive = no such curve, though single readings can be large or run the other way. Potencies of inconclusive entries are left out as doubtful fits. Some compounds were tested as several samples or in several runs, with calls that do not always agree.

Experiment: qHTS Assay for Inhibitors of Hepatitis C Virus (HCV)
Conditions: Huh7.5.1 HCVcc-Cre (HCVcc is cell-culture hepatitis C virus) infection, luciferase reporter, 44 h; series mostly up to 41.8 µM
Method in brief: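 Infectious HCV cell culture screen: compound-treated cells (1,000/well, pre-plated 4 h) are infected with HCVcc-Cre at roughly 0.5 moi and grown 44 h. Infection is quantified by luciferase signal after 15 min substrate incubation at room temperature.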
Potency is read from the fitted curve at half-maximal effect; tags tell the direction and shape of the fitted curve.

| Compound | Potency |
| --- | --- |
| Cc1cccc2sc(NNC(=O)c3ccc(S(=O)(=O)N4CCc5ccccc5C4)cc3)nc12 | inconclusive [inhibitor, full curve] |
| O=C(CN1C(=O)NC2(CCc3ccccc32)C1=O)c1ccc(Br)cc1 (configuration not stated) | inconclusive [inhibitor, single point] |
| CCSc1cc(N2CC(C)OC(C)C2)nc(-c2ccccc2Cl)n1 (configuration not stated) | inconclusive [inhibitor, partial curve] |
| CCn1c(SCC(=O)N/N=C/C=C/c2ccccc2[N+](=O)[O-])nnc1-c1ccccc1 | inconclusive [inhibitor, full curve, poor fit] |
| CN(C)C(=O)c1ccc(-n2cnc3ccccc3c2=O)cc1 | inactive |
| Cc1ccc(-n2[nH]c(C)c(C=NC34CN5CN(CN(C5)C3)C4)c2=O)cc1C | inactive |
| COC(=O)[C@H](CCSC)NS(=O)(=O)c1ccccc1Br | inactive |
| Cc1ccc(N(Cc2ccccc2F)S(C)(=O)=O)cc1C | inconclusive [inhibitor, single point] |
| Cc1cc(C)cc(NC(=O)CSc2nc3ccccc3nc2N2CCCC2)c1 | inconclusive [inhibitor, full curve] |
| CCCc1nc(SCC(=O)N2CCC(Cc3ccccc3)CC2)c2c(=O)n(C)c(=O)n(C)c2n1 | active: 10 µM |
| CCCCn1c(N2CCC(Cc3ccccc3)CC2)nc2c1c(=O)[nH]c(=O)n2C | active: 35.5 µM |
| CCCn1cc(CN2CCC(C(=O)Nc3cccc(-c4cscn4)c3)CC2)c(C)n1 | inconclusive [inhibitor, single point] |
| COc1ccccc1CNC(=O)/C(C#N)=C/c1ccc(OC)c(OC)c1OC | inconclusive [inhibitor, single point] |
| CCc1c(-c2ccccc2)[n+](=O)c2c(n1[O-])CCC2 | inactive |
| O=C(COc1ccc(Cl)cc1)N(Cc1ccc(F)cc1)C1CCS(=O)(=O)C1 (configuration not stated) | inactive |
| S=c1[nH]nc(-c2ccccc2)o1 | inactive |
| CCOC(=O)c1c(NC(C)=O)sc2c(OC(C)=O)cccc12 | inconclusive [inhibitor, single point] |
| COc1ccccc1NS(=O)(=O)c1cccc(C(=O)N/N=C(/C)c2ccc(-n3ccnc3)cc2)c1 | inconclusive [inhibitor, single point] |
| C=C1C(=O)OC2CC1C(O)CC(C)=CCCC(C)=CC(O)CC2C (configuration not stated) | active: 7.08 µM |
| Cc1ncc(CO)c(CNc2ccc(-c3nc4ccccc4[nH]3)cc2)c1O | inactive |
| Cc1nc(-c2ccc(S(=O)(=O)N3CCN(Cc4ccccc4)CC3)s2)cs1 | inconclusive [inhibitor, single point] |
| O=C(Cn1c(CO)nc2ccccc21)NCc1ccc2c(c1)OCO2 | inconclusive [inhibitor, single point] |
| CCc1ccc(CN(C)C(=O)CCc2nnc(-c3ccc(-c4ccccc4)cc3)o2)nc1 | inconclusive [inhibitor, single point] |
| CCC(=O)N1N=C(c2ccc(NS(C)(=O)=O)cc2)CC1c1ccc(C)cc1 (configuration not stated) | inconclusive [inhibitor, partial curve, poor fit] |

| Compound | Potency |
| --- | --- |
| C[C@H](CO)N1C[C@H](C)[C@@H](CN(C)S(=O)(=O)c2ccc(F)cc2)Oc2c(NC(=O)Cc3ccccc3)cccc2C1=O | inconclusive [inhibitor, single point] |
| COc1cccc(CNS(=O)(=O)c2cc3c(cc2C)NC(=O)CO3)c1 | inactive |
| Cc1noc(C(=O)Nc2cccc(O)c2)c1Cl | inactive |
| CC(C)n1c2ccccc2c2nc3ccccc3nc21 | active: 12.6 µM |
| CC(=O)OC1CCC2C3CCc4cc(O)ccc4C3CCC12C (configuration not stated) | inconclusive [inhibitor, single point] |
| NC(=O)c1ccc(NC(=O)CCc2nc3ccccc3s2)cc1 | inactive |
| CSCCC(NC(=O)c1cccc(C)c1)C(=O)OCC(=O)Nc1c(C)nn(-c2ccccc2)c1C (configuration not stated) | inactive |
| Cc1ccc(NC(=S)NC2CCN(Cc3ccccc3)CC2)c(C)c1 | inconclusive [inhibitor, single point] |
| Cc1cc(-c2ccc(N3CCOCC3)cc2)nc2ccccc12 | inconclusive [inhibitor, single point] |
| O=C(Nc1nn(Cc2ccccc2F)cc1Br)c1cccs1 | inconclusive [inhibitor, single point] |
| Cc1nc2ncccn2c1-c1csc(Nc2ccc(S(N)(=O)=O)cc2)n1 | inactive |
| CCc1ccc(NC(=O)Cn2nnc(-c3ccc(C)cc3-n3cnnn3)n2)cc1 | inconclusive [inhibitor, single point] |
| CC(C)n1nc(C(=O)Nc2cccc(S(=O)(=O)N3CCCCC3)c2)c2ccccc2c1=O | inconclusive [inhibitor, partial curve] |
| CCN(CC)S(=O)(=O)c1cc(NC(=O)c2cc([N+](=O)[O-])ccc2N2CCOCC2)ccc1C | inconclusive [inhibitor, single point] |
| C=CCNC(=O)c1cc(-c2cccnc2)nc2ccccc12 | inactive |
| CC1=C(CC(=O)c2ccccc2)C(=O)c2ccccc2C1=O | inconclusive [inhibitor, single point] |
| COc1ccc(-c2noc(CCC(=O)Nc3cc(OC)ccc3OC)n2)cc1 | inconclusive [inhibitor, partial curve] |
| CN(CCCC1CCCC1)C(=O)c1cc(COc2ccc(F)cc2F)on1 | inconclusive [inhibitor, partial curve] |
| Cc1ccc(S(=O)(=O)Nc2c(C)nn(C)c2C)cc1C | active: 0.562 µM |
| CCOC(=O)c1ccc(NC(=O)CN2CCc3ccccc3C2)cc1 | inactive |
| COc1ccc2[nH]c(CN3CCC(n4nccc4NC(=O)C4CC4)CC3)c(C)c2c1 | inactive |
| Cc1ccc(C(=S)N2CCN(Cc3ccccc3)CC2)cc1 | inconclusive [inhibitor, single point] |
| CC(=O)c1cccc(Nc2ncnc3ccc(Br)cc23)c1 | inconclusive [inhibitor, single point] |
| COc1cccc(C2CC(=O)Nc3n[nH]c(-c4ccccc4)c32)c1OC (configuration not stated) | inconclusive [inhibitor, single point] |

| Compound | Potency |
| --- | --- |
| CC1(C)CC(=O)C2=C(C1)OC(N)=C(C#N)C2c1ccc[nH]1 (configuration not stated) | inactive |
| CN1C2CCC1CC(OC(=O)c1ccc(Cl)cc1)C2 (configuration not stated) | inconclusive [inhibitor, single point] |
| Cc1ccn2cc(C(=O)Nc3ccccc3N3CCOCC3)nc2c1 | inconclusive [inhibitor, single point] |
| COc1ccc(-n2nnc3c(=O)n(CC(=O)OCc4ccccc4)cnc32)cc1 | inconclusive [inhibitor, single point] |
| Cc1ccc2c(c1)-c1cc(C)nn1C(c1ccc3c(c1)OCO3)N2 (configuration not stated) | active: 14.1 µM |
| COc1ccccc1NC(=O)CN1CCN(CC(=O)Nc2ccc3c(c2)OCO3)CC1 | inconclusive [inhibitor, partial curve] |
| CC1=CC(=NOC(=O)c2cccc([N+](=O)[O-])c2)C=C(C)C1=O | inconclusive [inhibitor, single point] |
| Cc1ccc(C(=O)NC(=S)Nc2cccc(NC(=O)c3ccccc3Cl)c2)cc1[N+](=O)[O-] | inconclusive [inhibitor, partial curve] |
| NS(=O)(=O)c1ccc(CCNC(=O)c2ccc3c(c2)OCO3)cc1 | inactive |
| Nc1c(C(=O)Nc2ccccc2)c2nc3ccccc3nc2n1-c1ccc(O)cc1 | inconclusive [inhibitor, single point] |
| COc1ccc(C2C(C#N)=C(C)NC3=C2C(=O)c2ccccc23)cc1 (configuration not stated) | inactive |
| COc1cc(NC(=O)CCc2nnc3ccc(N4CCN(c5cccc(OC)c5)CC4)nn23)cc(OC)c1 | inactive |
| CCN(C[C@H]1N[C@@](CC)(C(=O)OC)[C@H]2C(=O)N(Cc3ccccc3)C(=O)[C@@H]12)C(=O)c1ccc(F)cc1 | inconclusive [inhibitor, single point] |
| COc1ccc(C2CC(c3ccc4ccccc4c3)=NN2C(=O)CSc2ncccn2)cc1 (configuration not stated) | inactive |
| COc1ccccc1CNS(=O)(=O)c1ccc2c(c1)CC(C)N2C(=O)C1CCC1 (configuration not stated) | inconclusive [inhibitor, single point] |
| Cc1[nH]c2ccc(F)cc2c1CCN(Cc1ccncc1)C(=S)Nc1cccc(F)c1 | inactive |
| CCCCCCCCCCCCCCCCn1cc[n+](C)c1 | active: 562 nM and active: 5.62 µM |
| C=CCNC(=O)C1CCN(c2ccc(S(=O)(=O)N3CCOCC3)cc2Cl)CC1 | inactive |
| Clc1nc2ccccc2cc1-c1nnn(-c2ccccc2Br)n1 | inactive |
| CCCC[n+]1c(C)sc2cc(OC)ccc21 | inactive |
| O=C(CNC1CCCC1)Nc1ccc(S(=O)(=O)N2CCCCC2)cc1 | inactive |
| Cc1oc(-c2cccs2)nc1CN1CCN(CC(C)C)C(CCO)C1 (configuration not stated) | inactive |
| CCOCc1c(C(=O)NC2=Nc3ccccc3NC(CC)=C2C(=O)OCC)oc2ccccc12 | inconclusive [inhibitor, partial curve] |
| CC(C)(C)OC(=O)NCc1ccc(CNC(=O)c2[nH]cnc2C(=O)NCC(=O)OCc2ccccc2)cc1 | inconclusive [inhibitor, single point] |
